Measured values from article PMC4336329 (PLoS ONE, 2015).
Among all 310,000 compounds or so, about 2,200 (0.71%) showed an effect of 50% or more. Effects have a minus sign here. The list shows a part of the results.

Target: human ether-à-go-go-related gene (hERG) potassium channel (human, UniProt Q12809)
Test: primary screen, population patch clamp on CHO cells stably expressing hERG

human ether-à-go-go-related gene (hERG) potassium channel, sequence (Q12809 whole entry, looked up): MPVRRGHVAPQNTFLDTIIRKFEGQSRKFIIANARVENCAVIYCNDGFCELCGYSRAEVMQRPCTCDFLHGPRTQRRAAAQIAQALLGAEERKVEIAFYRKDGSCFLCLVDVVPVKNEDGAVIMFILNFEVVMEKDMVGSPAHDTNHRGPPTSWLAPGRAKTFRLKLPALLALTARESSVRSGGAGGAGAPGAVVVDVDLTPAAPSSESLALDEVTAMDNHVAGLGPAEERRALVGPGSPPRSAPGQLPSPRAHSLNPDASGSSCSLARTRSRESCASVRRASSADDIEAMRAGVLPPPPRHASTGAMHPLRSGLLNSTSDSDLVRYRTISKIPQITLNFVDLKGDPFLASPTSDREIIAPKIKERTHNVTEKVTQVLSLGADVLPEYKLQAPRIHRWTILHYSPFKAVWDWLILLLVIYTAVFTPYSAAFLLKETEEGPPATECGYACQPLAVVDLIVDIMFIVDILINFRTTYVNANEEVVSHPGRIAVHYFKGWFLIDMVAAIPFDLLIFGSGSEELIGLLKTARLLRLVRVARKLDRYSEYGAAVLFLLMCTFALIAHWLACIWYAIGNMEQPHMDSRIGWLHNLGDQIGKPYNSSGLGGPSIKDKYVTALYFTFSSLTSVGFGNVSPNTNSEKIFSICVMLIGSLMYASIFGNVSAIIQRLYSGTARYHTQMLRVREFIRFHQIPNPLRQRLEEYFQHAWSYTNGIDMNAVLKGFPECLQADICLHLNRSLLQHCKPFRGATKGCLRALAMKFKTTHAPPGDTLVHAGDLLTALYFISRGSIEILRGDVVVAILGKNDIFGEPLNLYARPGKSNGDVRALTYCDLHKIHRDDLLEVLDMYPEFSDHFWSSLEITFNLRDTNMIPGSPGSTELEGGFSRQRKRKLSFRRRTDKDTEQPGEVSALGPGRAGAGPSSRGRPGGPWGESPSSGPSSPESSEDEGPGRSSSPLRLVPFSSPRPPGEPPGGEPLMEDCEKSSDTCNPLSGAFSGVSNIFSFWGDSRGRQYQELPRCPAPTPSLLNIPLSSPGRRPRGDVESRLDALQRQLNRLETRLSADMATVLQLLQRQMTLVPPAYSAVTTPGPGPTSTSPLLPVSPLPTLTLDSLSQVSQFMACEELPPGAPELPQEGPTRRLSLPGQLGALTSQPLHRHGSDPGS

| Structure (SMILES) | hERG current change (%, negative = inhibition) at 1uM [%] |
| --- | --- |
| COc1ccccc1NC(=O)c1ccc(NC(=O)COC(=O)C(C)C)cc1 | 13.2 |
| C/C(=N\OC(=O)Nc1ccc(Cl)cc1)c1ccc(F)c(F)c1 | 6.25 |
| CCN(CC)C1CCCCC1NS(=O)(=O)c1ccc(Cl)cc1 (stereo not shown) | 6.21 |
| O=C(NCCCN1CCCCC1)c1ccc(CS(=O)c2ccc(Cl)cc2)o1 (stereo not shown) | 2.37 |
| COc1cc(C(=O)Nc2ccc(C(C)=O)cc2)c(Br)c(OC)c1OC | 11.6 |
| COCc1nnc(NC(=O)c2ccc3c(c2)OCO3)s1 | 13.6 |
| CCOC(=O)c1c(NC(=O)COC(=O)c2ccccn2)sc(C)c1C | 7.8 |
| Cc1ccc(C(=O)Nc2ccccc2C(=O)NCc2cccnc2)cc1 | -2.04 |
| CCOc1ccc(CN(C)CC(O)COC(c2ccc(OC)cc2)c2ccc(OC)cc2)cc1 (stereo not shown) | -81.9 |
| Cc1ccc2c(c1)/C(=C/c1ccccc1F)C(=O)N2 | 7.08 |
| COc1cc(C2Nc3ccccc3C(=O)N2c2ccc3c(c2)OCCO3)ccc1OCC(C)C (stereo not shown) | 11.8 |
| CCC(C)Sc1nnc(CSc2nc(C)cc(C)n2)n1C (stereo not shown) | 0.227 |
| COc1ccc(OC)c(-n2nnnc2SCC(=O)Nc2ccc(C(=O)N3CCCCC3)cc2)c1 | 0.144 |
| CCCSc1nsc(SCCC)c1C(N)=O | -5.9 |
| CCC(C)N(C(=O)COc1ccc(Cl)c2cccnc12)C1CCS(=O)(=O)C1 (stereo not shown) | 8.91 |
| COc1ccccc1NC(=S)NCCc1ccc(S(N)(=O)=O)cc1 | 9.24 |
| Cc1cc(C(=O)N2CCCC(N3CCN(c4ccccc4C)CC3)C2)nc(C)n1 (stereo not shown) | 6.8 |
| O=C(NCc1ccco1)c1cc2n(n1)C(C(F)(F)F)CC(c1ccc(Cl)c(Cl)c1)N2 (stereo not shown) | -0.317 |
| CN1/C(=C\C(=O)COC(=O)CN2C(=O)C3CC=CCC3C2=O)C(C)(C)c2ccccc21 (stereo not shown) | 15.9 |
| O=C(CSc1nc2ccccc2c(=O)n1NC(=O)Cc1ccccc1)NCc1ccco1 | 0.614 |
| CC(=O)c1cccc(NC(=S)NCCCCc2ccccc2)c1 | 12.4 |
| C=CCc1cc(C)ccc1OCCCn1ccnc1.O=C(O)C(=O)O | 15.4 |
| COc1ccccc1C(=O)NCc1ccco1 | 6.96 |
| CCc1ccc(CCC(=O)Nc2ccc(C)cc2C)o1 | -5.31 |
| CCCc1nnc(SCC(=O)Nc2ccc(OC)cc2)n1N | 11.1 |
